# Laboratory results: PubChem BioAssay AID504339 (National Center for Advancing Translational Sciences (NCATS), 2011)
# Among all 390,000 compounds or so, about 17,000 (4.4%) were called active. Inconclusive results, whose numbers are uncertain, are shown with a selection of clear calls. The call rests on the fitted dose curve; in most records, active means well fitted inhibition curve with a large enough effect; inconclusive means small, poorly fitted or top-dose-only effect; inactive means no such curve, though single readings can be large or run the other way. Potencies beside an inconclusive call are fits to weak or partial responses and may not hold up.
# Molecular target: Lysine-specific demethylase 4A (Homo sapiens) (UniProt O75164)
# Sequence of UniProt O75164 (O75164 whole entry, looked up, the tested form may be a part): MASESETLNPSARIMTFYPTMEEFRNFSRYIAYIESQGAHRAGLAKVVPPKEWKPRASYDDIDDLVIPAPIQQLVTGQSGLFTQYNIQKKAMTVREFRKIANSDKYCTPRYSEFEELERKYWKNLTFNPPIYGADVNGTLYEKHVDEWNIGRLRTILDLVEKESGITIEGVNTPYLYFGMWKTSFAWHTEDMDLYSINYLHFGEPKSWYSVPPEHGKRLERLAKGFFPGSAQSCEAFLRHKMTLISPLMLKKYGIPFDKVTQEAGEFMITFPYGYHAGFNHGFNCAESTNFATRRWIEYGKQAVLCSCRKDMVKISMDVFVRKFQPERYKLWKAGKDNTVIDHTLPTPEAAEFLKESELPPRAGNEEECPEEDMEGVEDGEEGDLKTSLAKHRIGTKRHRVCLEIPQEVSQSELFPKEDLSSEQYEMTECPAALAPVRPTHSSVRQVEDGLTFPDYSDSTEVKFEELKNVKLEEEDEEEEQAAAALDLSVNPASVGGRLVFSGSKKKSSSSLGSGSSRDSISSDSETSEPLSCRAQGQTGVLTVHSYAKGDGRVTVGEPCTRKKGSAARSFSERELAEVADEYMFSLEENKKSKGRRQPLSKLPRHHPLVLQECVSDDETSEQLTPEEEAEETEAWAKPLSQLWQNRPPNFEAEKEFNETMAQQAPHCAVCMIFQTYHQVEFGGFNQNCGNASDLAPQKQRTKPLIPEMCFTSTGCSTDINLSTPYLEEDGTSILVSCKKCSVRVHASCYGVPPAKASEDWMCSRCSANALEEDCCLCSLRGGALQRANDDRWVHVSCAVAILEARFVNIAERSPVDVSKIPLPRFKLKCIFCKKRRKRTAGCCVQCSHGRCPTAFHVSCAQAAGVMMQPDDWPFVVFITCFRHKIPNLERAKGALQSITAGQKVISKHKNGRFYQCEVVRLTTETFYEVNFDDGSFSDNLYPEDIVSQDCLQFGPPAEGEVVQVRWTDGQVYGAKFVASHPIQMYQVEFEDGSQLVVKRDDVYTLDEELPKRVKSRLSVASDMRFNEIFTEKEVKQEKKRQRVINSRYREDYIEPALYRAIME
# Assay: qHTS Assay for Inhibitors of JMJD2A-Tudor Domain; further: nearly all actives have a fitted effect of over 50% in size
# Details: AlphaScreen JMJD2A-Tudor / H3K4me3 peptide binding; activity change, negative = inhibition: at 114 µM (top of the series)
# On the % scale 0 is the no-effect control and ±100 the full control effect; potency means the concentration at half of the fitted maximal effect; tags describe the fitted curve by direction and shape.
Structure (SMILES),"activity change, negative = inhibition",Potency
COc1ccc(N(C(=O)c2cccc(C)c2)S(=O)(=O)c2ccc(C)cc2)cc1,inactive: -5.56%,
CCCCCc1ccnc(CC(=O)c2ccc(OC)cc2)c1,,"inconclusive: 35.5 µM [inhibitor, single point]"
COc1ccc(O)c(C(=O)c2cc(C#N)c(=O)n(Cc3ccccc3)c2)c1,,"inconclusive: 50.1 µM [inhibitor, partial curve]"
O=C(COC(=O)c1ccc(S(=O)(=O)N2CCCCC2)cc1)NCc1ccco1,,"inconclusive: 44.7 µM [inhibitor, partial curve]"
O=C(COc1cc2oc(=O)c3c(c2cc1Cl)CCC3)NCCCn1ccnc1,inactive: 17.9%,
CC(=O)Nc1ccc(CC(=O)O)cc1,inactive: -4.14%,
COc1ccc(C)cc1NC(=O)CSc1nnc(COc2ccccc2)n1Cc1ccco1,,"inconclusive: 17.8 µM [inhibitor, full curve, poor fit]"
S=c1[nH]cc(-c2ccc(Cl)cc2)n1-c1ccccc1,,"inconclusive: 44.7 µM [inhibitor, single point]"
COC(=O)C1CCN(C(=O)c2ccc(OC3CCN(Cc4ccccn4)CC3)cc2)CC1,,"inconclusive: 28.2 µM [inhibitor, single point]"
Cc1nc(-c2ccc(S(=O)(=O)N3CCN(c4cccc(C)c4C)CC3)cc2)co1,,"inconclusive: 15.8 µM [inhibitor, full curve]"
O=C1Nc2cc3c(cc2C1=O)sc1ccccc13,,"inconclusive: 50.1 µM [inhibitor, partial curve]"
CCCCN(CC)C(=O)c1cc2c(=O)n3ccccc3nc2n1C,inactive: -22%,
COc1ccccc1N/N=C1\COC(C)(C)CC1=O,,"inconclusive: 50.1 µM [inhibitor, partial curve]"
C#CCOc1ccc(/C=C2/C(=O)N(c3cccc(C(=O)O)c3)N=C2C)cc1OC,,"inconclusive: 56.2 µM [inhibitor, partial curve]"
Cc1ccc(-n2ncc(C(=O)Nc3ccc4c(c3)OCO4)c2C2CCN(C(=O)OC(C)(C)C)CC2)c(C)c1,,active: 31.6 µM
CC(C)(C)OC(=O)N1CCN(C(=O)c2[nH]cnc2C(=O)Nc2cccc(Cl)c2)CC1,,"inconclusive: 79.4 µM [inhibitor, partial curve]"
Cc1cccc(C)c1NC(=O)COC(=O)Cc1ccsc1,inactive: -1.38%,
COc1cc(-c2noc(-c3ccc(NCc4ccco4)c([N+](=O)[O-])c3)n2)cc(OC)c1OC,inactive: -15.9%,
COC(=O)c1ccc(NC(=S)NNC(=O)CC(C)C)cc1,inactive: -22.6%,
CNC(=S)Nc1ccc(Nc2ccccc2)cc1,,"inconclusive: 56.2 µM [inhibitor, partial curve]"
CC(C)(c1ccccc1)c1ccc(OCC2CO2)cc1 (centres undefined),inactive: 190%,
Cc1ccc2ccc(C)[n+](CCCS(=O)(=O)[O-])c2c1,inactive: -32.3% [at 11.4 µM],
Cc1ccc(NC(=O)CN2C(=O)N/C(=C/c3cccn3-c3ccc(C(=O)O)cc3)C2=O)cc1,,active: 3.16 µM
S=c1[nH]nc(-c2ccccc2Cl)n1CC1CCCO1 (centres undefined),,active: 39.8 µM
CN(CC(=O)Nc1ccccc1Br)C(=O)CN1CCN(c2ccccc2Cl)CC1,inactive: -9.72%,

Structure (SMILES),"activity change, negative = inhibition",Potency
Nc1c2c(nc3ccccc13)N(c1ccccc1)CC2,,active: 35.5 µM
Cc1cccc(CS(=O)(=O)Cc2ccc(C(=O)NCc3cccnc3)o2)c1,inactive: 4.47%,
CCn1c(-c2nn(-c3ccc(C)cc3)ccc2=O)n[nH]c1=S,,active: 7.94 µM
O=S(=O)(c1cccc(-c2n[nH]c(=S)o2)c1)N1CCOCC1,,"inconclusive: 17.8 µM [inhibitor, full curve]"
O=C(Nc1ccc(F)cc1F)C1CCN(S(=O)(=O)c2ccc3[nH]c(=O)ccc3c2)CC1,inactive: 1.94%,
CC(C)OC(=O)c1ccc(N2CCN(c3ccccc3F)CC2)nc1,inactive: 55.5%,
CCn1c2ccccc2c2cc(/C=N/n3c(-c4cc(C)[nH]n4)n[nH]c3=S)ccc21,,"inconclusive: 22.4 µM [inhibitor, full curve]"
N#C/C(=C(/O)COc1ccc(Cl)cc1)c1nc2ccccc2s1,inactive: -11.3% [at 11.4 µM],
CCO/N=C/C1=C(O)C(C(=O)OC)C(C)(C)CC1=O (centres undefined),,"inconclusive: 28.2 µM [inhibitor, single point]"
CCOc1ccc(NC(=O)c2ccccc2NS(=O)(=O)c2ccc(F)cc2)c([N+](=O)[O-])c1,,"inconclusive: 50.1 µM [inhibitor, partial curve]"
CCOC(=O)c1ccc(NS(=O)(=O)c2cc(-c3onc(C)c3C)ccc2C)cc1,inactive: -12.7%,
COc1cccc(C(=O)c2cn(CC(=O)NCc3ccccc3)c3nc(C)ccc3c2=O)c1,,"inconclusive: 89.1 µM [inhibitor, single point]"
COc1ccc(CCNC(=O)c2cc(S(=O)(=O)N3CCOCC3)ccc2F)cc1,inactive: 0.709%,
CC(=O)c1c(O)c2ccccc2n(C)c1=O,,"inconclusive: 35.5 µM [inhibitor, single point]"
O=C(O)c1ccccc1NC(=S)NC(=O)c1sc2ccccc2c1Cl,,"inconclusive: 56.2 µM [inhibitor, partial curve]"
COc1cc(OC)cc(C(=O)N[C@H](C(=O)NCCc2c[nH]c3ccccc23)C(C)C)c1,,"inconclusive: 79.4 µM [inhibitor, partial curve]"
Cc1cc(OC(=O)c2cccc(Cl)c2)c([N+](=O)[O-])c(=O)[nH]1,inactive: -23.8%,
Nc1nc2ccc(O)cc2s1,inactive: -13.9%,
COc1ccc(OC)c(S(=O)(=O)NCc2cccn2Cc2cccc(C)c2)c1,inactive: -29.1%,
CNS(=O)(=O)c1ccc(NC(=O)c2ccoc2C)cc1,inactive: 3.01% [at 11.4 µM],
Cc1ccc(/C=N/NC(=O)Cc2cccn2C)s1,inactive: -13%,
COc1ccc(NC(=O)c2cccn2-c2nnc(N3CCCCC3)s2)cc1Cl,,"inconclusive: 44.7 µM [inhibitor, partial curve]"
O=C(CSc1ncccc1C(=O)O)c1ccccc1,,"inconclusive: 79.4 µM [inhibitor, partial curve]"
Cc1ccc(Cl)cc1Nc1nc(-c2sc(NC(=O)c3ccco3)nc2C)cs1,,"inconclusive: 44.7 µM [inhibitor, single point]"
Cc1ccc(NC(=O)Cn2c(=O)n(CCCCC(=O)NCc3ccccc3Cl)c(=O)c3ccccc32)cc1C,inactive: -17.4%,

Structure (SMILES),"activity change, negative = inhibition",Potency
COc1cc(Nc2ncc3c(n2)CCN(Cc2cc(Br)cs2)C3)cc(OC)c1,,"inconclusive: 70.8 µM [inhibitor, partial curve, poor fit]"
O=C(Nc1ccc(C(=O)O)cc1)/C(=C/c1cccc(Br)c1)NC(=O)c1ccco1,inactive: -9.03%,
CC(Nc1ccc(S(=O)(=O)N2CCN(C)CC2)cc1[N+](=O)[O-])c1ccccc1 (centres undefined),,"inconclusive: 50.1 µM [inhibitor, partial curve]"
Cc1sc(NC(=O)Cc2ccc3c(c2)OCO3)nc1-c1ccc2c(c1)CCN2C(=O)c1ccccc1F,inactive: -30.8%,
CN(CC(=O)Nc1cccc(F)c1)CC(=O)Nc1ccccc1Oc1ccccc1,,active: 10 µM
CCc1nnc(NS(=O)(=O)c2ccc(NC(=S)NC(=O)c3ccccc3)cc2)s1,,"inconclusive: 63.1 µM [inhibitor, partial curve, poor fit]"
Cc1ccc(N2C(=O)CCSC23C(=O)N(Cc2ccccc2)c2ccccc23)cc1F (centres undefined),,"inconclusive: 39.8 µM [inhibitor, full curve]"
COc1ccccc1N1CC(C(=O)Nc2ccc3c(c2)OCO3)CC1=O (centres undefined),inactive: -14.3% [at 11.4 µM],
Cc1ccc(S(=O)(=O)Nc2ccc(C(OC(=O)c3ccccc3[N+](=O)[O-])(C(F)(F)F)C(F)(F)F)cc2)cc1,,"inconclusive: 22.4 µM [inhibitor, full curve]"
COc1ccccc1NC(=S)NCCc1c[nH]c2ccccc12,,"inconclusive: 4.47 µM [inhibitor, single point]"
COc1ccc(-c2n[nH]c(C(F)(F)F)c2-c2cc3ccccc3o2)c(O)c1,,"inconclusive: 89.1 µM [inhibitor, partial curve]"
Cc1cc2c(cc1C)N(C(=O)CN1C(=O)c3ccccc3C1=O)C(C)(C)c1ssc(=S)c1-2,,active: 39.8 µM
O=C(O)c1nccnc1C(=O)Nc1ccc(S(=O)(=O)N2CCOCC2)cc1,,"inconclusive: 28.2 µM [inhibitor, single point]"
Cc1ccc(-c2nnc(C3CCN(S(=O)(=O)c4ccc(C)c(C)c4)CC3)o2)cc1,inactive: -14.6%,
O=C(O)c1ccccc1NS(=O)(=O)c1ccc(NN=Cc2ccccc2F)c([N+](=O)[O-])c1,,active: 20 µM
CCOc1ccccc1NC(=O)CN1C(=O)CC(c2ccc(OC)c(OC)c2)Sc2ccccc21 (centres undefined),inactive: -22.2%,
COc1cc(CN2CCN(Cc3c[nH]c4ccccc34)CC2CCO)cc(OC)c1 (centres undefined),inactive: -25.2%,
CCCCC(=O)NC(=S)NNS(=O)(=O)c1ccccc1,,"inconclusive: 0.708 µM [inhibitor, full curve, poor fit]"
O=C(C1=C[C@@H](C2CCCCC2)C[C@@H](OCc2ccc(CO)cc2)O1)N1CCN(Cc2ccc3c(c2)OCO3)CC1,,"inconclusive: 50.1 µM [inhibitor, partial curve]"
Cc1sc2ncnc(SCC(=O)N(C(C)C)C(C)C)c2c1C,inactive: -7.52%,
CCOc1ccc2nc(Cl)c(CN(C(C)=O)C3CCCCC3)cc2c1,inactive: -15.2%,
COc1ccccc1C(=O)NC(=O)COC(=O)c1cc[n+]([O-])cc1,inactive: -13.8%,
CCOC(=O)CNC1CC(=O)N(c2cccc(Cl)c2)C1=O (centres undefined),,"inconclusive: 89.1 µM [inhibitor, single point]"
Cc1cccc(N2CCN(C(=O)CN3CCSc4ccccc43)CC2C)c1 (centres undefined),,active: 50.1 µM
